According to the supplement of paper PMC8728848:
This is one part of the list.

Key:
Assay in all cases: glycan array binding signal (z-score within array); higher = stronger binding
Conditions in all cases: glycan notation: IUPAC condensed, linker removed
[1] = molecular target: Neu5Ac(a2-6)GlcNAc(b1-4)GlcNAc(b1-4)GlcNAc
Outline: (§1)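 Glycan array data were curated from 3228 arrays in the Consortium for Functional Glycomics database and kept only where the protein sequence was available. Glycan names were converted to IUPAC-condensed notation, and columns mapping to the same glycan were averaged. The binding signal is a within-array Z-score, averaged across arrays of the same protein sequence at different concentrations or buffers and across linkers. Negative Z-scores can be read as non-binding.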

Neu5Ac(a2-8)Neu5Ac = molecular target: Neu5Ac(a2-8)Neu5Ac
Outline: as §1

[2] = molecular target: Neu5Ac(a2-8)Neu5Ac(a2-3)Gal(b1-3)GalNAc(b1-4)[Neu5Ac(a2-3)]Gal(b1-4)Glc
Outline: as §1

[3] = molecular target: Neu5Ac(a2-8)Neu5Ac(a2-3)Gal(b1-3)GalNAc(b1-4)[Neu5Ac(a2-8)Neu5Ac(a2-3)]Gal(b1-4)Glc
Outline: as §1

[4] = molecular target: Neu5Ac(a2-8)Neu5Ac(a2-3)Gal(b1-4)Glc
Outline: as §1

[5] = molecular target: Neu5Ac(a2-8)Neu5Ac(a2-3)Gal(b1-4)GlcNAc
Outline: as §1

[6] = molecular target: Neu5Ac(a2-8)Neu5Ac(a2-3)[Gal(b1-3)GalNAc(b1-4)]Gal(b1-4)Glc
Outline: as §1

[7] = molecular target: Neu5Ac(a2-8)Neu5Ac(a2-3)[GalNAc(b1-4)]Gal(b1-4)Glc
Outline: as §1

[8] = molecular target: Neu5Ac(a2-8)Neu5Ac(a2-8)Neu5Ac
Outline: as §1

[9] = molecular target: Neu5Ac(a2-8)Neu5Ac(a2-8)Neu5Ac(a2-3)Gal(b1-4)Glc
Outline: as §1

[10] = molecular target: Neu5Ac(a2-8)Neu5Ac(a2-8)Neu5Ac(a2-3)[Gal(b1-3)GalNAc(b1-4)]Gal(b1-4)Glc
Outline: as §1

[11] = molecular target: Neu5Ac(a2-8)Neu5Ac(a2-8)Neu5Ac(a2-3)[GalNAc(b1-4)]Gal(b1-4)Glc
Outline: as §1

[12] = molecular target: Neu5Ac(a2-8)Neu5Ac(a2-8)Neu5Ac(a2-8)Neu5Ac(a2-3)[GalNAc(b1-4)]Gal(b1-4)Glc
Outline: as §1

[13] = molecular target: Neu5Ac(a2-8)Neu5Gc(a2-3)Gal(b1-4)GlcNAc
Outline: as §1

[14] = molecular target: Neu5Ac(b2-6)Gal(b1-4)GlcNAc
Outline: as §1

Neu5Ac(b2-6)GalNAc = molecular target: Neu5Ac(b2-6)GalNAc
Outline: as §1

[15] = molecular target: Neu5Ac9Ac(a2-3)Gal(b1-3)GlcNAc
Outline: as §1

[16] = molecular target: Neu5Ac9Ac(a2-3)Gal(b1-4)GlcNAc
Outline: as §1

[17] = molecular target: Neu5Ac9Ac(a2-6)Gal(b1-4)GlcNAc
Outline: as §1

[18] = molecular target: Neu5Gc(a2-3)Gal(b1-3)GlcNAc
Outline: as §1

[19] = molecular target: Neu5Gc(a2-3)Gal(b1-3)[Fuc(a1-4)]GlcNAc
Outline: as §1

Neu5Gc(a2-3)Gal(b1-4)Glc = molecular target: Neu5Gc(a2-3)Gal(b1-4)Glc
Outline: as §1

[20] = molecular target: Neu5Gc(a2-3)Gal(b1-4)GlcNAc
Outline: as §1

[21] = molecular target: Neu5Gc(a2-3)Gal(b1-4)GlcNAc(b1-3)Gal(b1-4)GlcNAc(b1-2)Man(a1-3)[Neu5Gc(a2-3)Gal(b1-4)GlcNAc(b1-3)Gal(b1-4)GlcNAc(b1-2)Man(a1-6)]Man(b1-4)GlcNAc(b1-4)GlcNAc
Outline: as §1

[22] = molecular target: Neu5Gc(a2-3)Gal(b1-4)[Fuc(a1-3)]GlcNAc
Outline: as §1

[23] = molecular target: Neu5Gc(a2-6)Gal(b1-4)GlcNAc
Outline: as §1

Neu5Gc(a2-6)GalNAc = molecular target: Neu5Gc(a2-6)GalNAc
Outline: as §1

[24] = molecular target: Neu5Gc(a2-8)Neu5Ac(a2-3)Gal(b1-4)GlcNAc
Outline: as §1

[25] = molecular target: Neu5Gc(a2-8)Neu5Gc(a2-3)Gal(b1-4)GlcNAc
Outline: as §1

[26] = molecular target: Neu5Gc(a2-8)Neu5Gc(a2-3)Gal(b1-4)GlcNAc(b1-3)Gal(b1-4)GlcNAc
Outline: as §1

[27] = molecular target: Neu5Gc(a2-8)Neu5Gc(a2-6)Gal(b1-4)GlcNAc
Outline: as §1

[28] = molecular target: Neu5Gc(b2-6)Gal(b1-4)GlcNAc
Outline: as §1

B1: CC1G-11630 (Coprinopsis cinerea), A8P462 (protein)
chain: MTTEAKIKLKAVVYWELVFDYDNSSNTGEITQSYTVKISQTSTRSTFASEVSTTTIDTLTKNNQEVDVGASYGAISANVSASWEHSEEVNNMLEKTTQTSTEDTYTVETEETRSYTIGPGGMLSLFQKHFSGPGMHVAFDVFTTDLELAKERTEIDIDVDVEAIRFVREIRVVYTDIMSEAPGDHVREINGKNPDINYGFNGKFVWLVPEQTRKTAQALTNVEFVSQAESDDRYWDLAAGAGGSNRYLIPVYDTNNKDKIYELALWRSDSYITHDKVKAAGWSGTTGDINSGRGGTYLNLVWKTRHAY
[1]
  glycan array binding signal (z-score): -0.618
Neu5Ac(a2-8)Neu5Ac
  glycan array binding signal (z-score): 0.519
[2]
  glycan array binding signal (z-score): -0.228
[3]
  glycan array binding signal (z-score): -0.22
[4]
  glycan array binding signal (z-score): -0.62
[5]
  glycan array binding signal (z-score): -0.508
[6]
  glycan array binding signal (z-score): -0.386
[7]
  glycan array binding signal (z-score): 0.069
[8]
  glycan array binding signal (z-score): 0.018
[9]
  glycan array binding signal (z-score): -0.108
[10]
  glycan array binding signal (z-score): -0.205
[11]
  glycan array binding signal (z-score): -0.394
[12]
  glycan array binding signal (z-score): -0.33
[13]
  glycan array binding signal (z-score): -0.52
[14]
  glycan array binding signal (z-score): -0.248
Neu5Ac(b2-6)GalNAc
  glycan array binding signal (z-score): -0.235
[15]
  glycan array binding signal (z-score): 0.279
[16]
  glycan array binding signal (z-score): -0.202
[17]
  glycan array binding signal (z-score): -0.598
[18]
  glycan array binding signal (z-score): -0.487
[19]
  glycan array binding signal (z-score): -0.454
Neu5Gc(a2-3)Gal(b1-4)Glc
  glycan array binding signal (z-score): -0.367
[20]
  glycan array binding signal (z-score): -0.457
[21]
  glycan array binding signal (z-score): 0.099
[22]
  glycan array binding signal (z-score): -0.942
[23]
  glycan array binding signal (z-score): -0.519
Neu5Gc(a2-6)GalNAc
  glycan array binding signal (z-score): -0.389
[24]
  glycan array binding signal (z-score): -0.687
[25]
  glycan array binding signal (z-score): -0.522
[26]
  glycan array binding signal (z-score): -0.517
[27]
  glycan array binding signal (z-score): -0.498
[28]
  glycan array binding signal (z-score): -0.389
